Laboratory results published in PubChem BioAssay AID504832 (National Center for Advancing Translational Sciences (NCATS), 2011).
The whole screen tested about 310,000 compounds, of which about 18,000 (5.8%) were called active. The shares of active, inactive and inconclusive entries below differ from those in the screen. The call rests on the fitted dose curve; in most records, active means well fitted inhibition curve with a large enough effect; inconclusive means small, poorly fitted or top-dose-only effect, or another doubt; inactive means no such curve, though single readings can be large or run the other way. Potencies of inconclusive entries are left out as doubtful fits.

assay: Primary qHTS for delayed death inhibitors of the malarial parasite plastid, 48 hour incubation; conditions: P. falciparum luciferase growth in erythrocytes; series mostly up to 28.7 µM; activity change, negative = inhibition: at the top concentration
Method in brief: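 Luciferase-expressing parasites in RBCs, 2% Hct / 0.1% parasitemia final; RPMI 1640 + 0.5% Albumax; 37 C, 5% CO2, one generation; luminescence read-out, lower signal = inhibition.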
On the % scale 0 is the no-effect control and ±100 the full control effect; potency means the concentration at half of the fitted maximal effect; tags describe the fitted curve by direction and shape.

Row | Structure (SMILES) | Potency | activity change, negative = inhibition
1 | Cc1nn(C(C)C(=O)c2cccc(Cl)c2)c(C)c1[N+](=O)[O-] (stereo not given) | inconclusive [inhibitor, single point] | 
2 | Cc1cccc(N(Cc2ccccc2)C(=O)c2ccc(F)c(S(=O)(=O)N3CCOCC3)c2)c1 | active: 11.7 µM | 
3 | O=C(Nc1cccc(-c2csc(Nc3cccc(C(F)(F)F)c3)n2)c1)c1cc([N+](=O)[O-])cc(C(F)(F)F)c1 | inconclusive [inhibitor, full curve] | 
4 | COc1ccc(-c2cc(C(F)(F)F)nc(SCC(=O)NCCCN3CCOCC3)n2)cc1 |  | inactive: 12%
5 | Cc1cccc(-n2c(SCc3ccc(C#N)cc3)nnc2-c2c[nH]c3ccccc23)c1 | inconclusive [inhibitor, single point] | 
6 | Cc1ccc(NC(=O)C2CCN(S(=O)(=O)c3ccc4c(c3)NC(=O)C(C)S4)CC2)cc1C (stereo not given) | active: 10.4 µM | 
7 | CCOCCCNC(=O)c1cc(=O)n(Cc2cccc(C)c2)c2ccccc12 | inconclusive [inhibitor, partial curve, poor fit] | 
8 | CN1CCN(CC(=O)Nc2c(C(=O)c3ccccc3)oc3ccccc23)CC1 | inconclusive [inhibitor, single point] | 
9 | COc1ccc(N2CC(C(=O)N[C@@H](C)C(=O)N[C@H](CO)c3ccccc3)CC2=O)cc1 (stereo not given in full) |  | inactive: 48.2%
10 | Cc1cc2n(c(=O)c1C#N)CCCN2c1cccc(Cl)c1 | inconclusive [inhibitor, partial curve] | 
11 | CN(C)C(=O)Cn1cnc2c(cnn2-c2ccccc2Cl)c1=O | inconclusive [inhibitor, full curve, poor fit] | 
12 | COc1ccc(C(=O)C2CCCN(Cc3cn[nH]c3-c3ccc(F)cc3)C2)cc1OC (stereo not given) |  | inactive: -7%
13 | C(=N\Nc1nc(Nc2ccccc2)nc(N2CCCCC2)n1)/c1ccco1 | inconclusive [inhibitor, single point] | 
14 | Cc1ccc(-n2c(-c3ccc(Br)cc3)c[n+]3c2CCc2ccc4cccnc4c2-3)cc1 | active: 1.65 µM | 
15 | C=CCN1CC(c2nc3ccccc3n2Cc2ccccc2)CC1=O (stereo not given) | inconclusive [inhibitor, single point] | 
16 | C/C(=N\Nc1nc(C)cc(-c2ccccc2)n1)c1cccc(N)c1 | inconclusive [inhibitor, single point] | 
17 | CN(Cc1ccccc1)C(=O)c1[nH]cnc1C(=O)NCCCCCNC(=O)OC(C)(C)C | inconclusive [inhibitor, single point] | 
18 | Cc1ccnc(NC(=O)CCS(=O)(=O)c2ccccc2)c1 |  | inactive: 41.1%
19 | Cc1cc(C)c(C)c(S(=O)(=O)N2CCC(C(=O)NCCCN3CCOCC3)CC2)c1C | inconclusive [inhibitor, partial curve] | 
20 | O=C(NCCc1ccccc1)N1c2ccccc2Sc2ccccc21 | inconclusive [inhibitor, single point] | 
21 | Cc1ccc(C)c(-n2ccnc2SCC(=O)Nc2cccc(S(=O)(=O)NC3=NCCC3)c2)c1 | inconclusive [inhibitor, single point] | 
22 | COc1ccccc1NC(=O)Cn1cnc2sc(C(=O)Nc3cc(OC)c(OC)c(OC)c3)c(C)c2c1=O | inconclusive [inhibitor, single point] | 

Row | Structure (SMILES) | Potency | activity change, negative = inhibition
23 | COC(=O)C1=C(c2ccc(F)cc2OCc2ccccc2)C[C@@H]2CC[C@H]1N2C(=O)NCc1ccccc1Br | active: 4.15 µM | 
24 | O=C(Nc1cccc(Br)c1)c1ccc2c(c1)SC1=NS(=O)(=O)CCN12 | active: 11.7 µM | 
25 | COCCCNC(=S)NC1CC2CCCC(C1)N2Cc1cccs1 (stereo not given) | inconclusive [inhibitor, partial curve, poor fit] | 
26 | COc1cccc2[nH]c3c(N4CCCC(C)C4)ncnc3c12 (stereo not given) | inconclusive [inhibitor, single point] | 
27 | CCCC[N+]12CCC(CC1)C(C(O)(c1ccccc1)c1ccccc1)C2 (stereo not given) | inconclusive [inhibitor, single point] | 
28 | O=C(CCn1cncn1)N1CCCC(N2CCN(c3cccc(C(F)(F)F)c3)CC2)C1 (stereo not given) |  | inactive: -4.97%
29 | Cc1ccc(C(=O)N/N=C/c2nc3ccccc3n2C)cc1 | inconclusive [inhibitor, partial curve, poor fit] | 
30 | O=C(/C=C/c1ccco1)N(Cc1cccc(Br)c1)C1CCS(=O)(=O)C1 (stereo not given) | inconclusive [inhibitor, partial curve] | 
31 | O=C(COC(=O)/C=C/c1cn(-c2ccccc2)nc1-c1ccc2c(c1)OCCO2)NC1CCS(=O)(=O)C1 (stereo not given) | inconclusive [inhibitor, single point] | 
32 | COc1ccc(CCN(C)C(=O)C2CC(=O)N(Cc3ccc(C)cc3)C2)cc1OC (stereo not given) | inconclusive [inhibitor, single point] | 
33 | O=C(Nc1ccc(F)cc1)c1ccc(C(=O)N2CCCC(O)C2)cc1 (stereo not given) |  | inactive: 0.735%
34 | OC(CN1CCN(c2cccc(Cl)c2)CC1)c1ccc(F)cc1 (stereo not given) | inconclusive [inhibitor, single point] | 
35 | Cc1ccc2cc3c(N)c4c(C)ccc(C)c4nc3nc2c1 | inconclusive [inhibitor, full curve, poor fit] | 
36 | COc1ccc(/C=C2\SC(=S)N(CCC(=O)NCCc3ccc(O)cc3)C2=O)cc1 |  | inactive: 40.3%
37 | Cc1cc(NC(=O)CSc2nnc(-c3ccccc3)o2)no1 | inconclusive [inhibitor, single point] | 
38 | COc1ccc(C2(C)NC(=O)N(CC(=O)Nc3ccc4ccccc4c3)C2=O)cc1OC (stereo not given) | inconclusive [inhibitor, partial curve, poor fit] | 
39 | CCc1ccc(CNC(=O)C2CCCN(c3nnc(C)c4c(C)n(-c5ccccc5)nc34)C2)cc1 (stereo not given) | inconclusive [inhibitor, single point] | 
40 | CC(=O)Nc1ccc(CN2CCC(Oc3ccc(C(=O)N4CCCC4)cc3)CC2)cc1 |  | inactive: 50.1%
41 | Cc1c(C(=O)Nc2ccccc2[N+](=O)[O-])csc1-c1ccccc1 |  | inactive: 12%
42 | CCOC(=O)c1c(NC(=O)COC(=O)Cc2ccccc2[N+](=O)[O-])sc(C(=O)N(C)C)c1C | inconclusive [inhibitor, single point] | 
43 | c1ccc(NNC2=NCCS2)cc1 | inconclusive [inhibitor, partial curve] | 
44 | CCN1CCN(Cc2ccc(NC(=O)c3ccc(C)c(/C=C/c4cnc(Nc5cc(N6CCNCC6)nc(C)n5)cn4)c3)cc2C(F)(F)F)CC1 | inconclusive [inhibitor, full curve, poor fit] | 

Row | Structure (SMILES) | Potency | activity change, negative = inhibition
45 | CCOC(=O)c1cn(Cc2ccc(C)cc2)c2cc(F)ccc2c1=O | inconclusive [inhibitor, single point] | 
46 | CCC(C)NCCOCCOc1ccc(Cl)c(C)c1C (stereo not given) | inconclusive [inhibitor, single point] | 
47 | COc1ccc(OC)c(S(=O)(=O)N(C)CC(=O)N2CCN(c3ccccc3F)CC2)c1 | inconclusive [inhibitor, partial curve, poor fit] | 
48 | CCOC(=O)c1c(CN2CCN(CCO)CC2)n(-c2ccccc2)c2cc(Br)c(O)cc12 | active: 2.08 µM | 
49 | Cc1cc(=O)[nH]c(/N=C(\N)Nc2ccc(Oc3ccccc3)cc2)n1 | inconclusive [inhibitor, single point] | 
50 | Cc1ccc2c(Cl)cc(Cl)c(OCC(=O)N3CCOCC3)c2n1 | inconclusive [inhibitor, single point] | 
51 | Cc1cc(NC(=O)CCC(=O)N(Cc2ccccc2)C(C(=O)NC2CCCC2)c2ccc(C)o2)no1 (stereo not given) |  | inactive: -18.2%
52 | C=C(C)[C@@H]1CC=C(CN2CCC(N3CCC(C(=O)N4CCCC4)CC3)CC2)CC1 | active: 7.38 µM | 
53 | O=C(COc1ccc2ccc(=O)oc2c1)N1CCN(C(=O)C2COc3ccccc3O2)CC1 (stereo not given) | inconclusive [inhibitor, single point] | 
54 | Cc1cc(=S)nc(-c2ccccn2)[nH]1 | active: 10.4 µM | 
55 | COc1ccccc1CN1C(=O)CN(C2CCCC2)C(=O)C1c1ccc(F)cc1 (stereo not given) | inconclusive [inhibitor, single point] | 
56 | O=C(c1ccco1)N1CCN(Cc2cc(=O)c(OCc3ccc([N+](=O)[O-])cc3)co2)CC1 | inconclusive [inhibitor, single point] | 
57 | CCn1c(CSc2nc(C)cc(C)n2)nnc1SCC(=O)Nc1nc(-c2ccccc2)cs1 |  | inactive: -24.9%
58 | CCC(C)c1ccccc1N1CC(C(=O)N2CCN(C(=O)c3ccco3)CC2)CC1=O (stereo not given) | inconclusive [inhibitor, single point] | 
59 | CN(C(=O)CSc1ccc(S(=O)(=O)N2CCCCC2)cn1)c1ccccc1 | inconclusive [inhibitor, single point] | 
60 | O=C(CCC1CCCN(C(=O)C2CCCC2)C1)NCc1ccc(F)c(F)c1 (stereo not given) | inconclusive [inhibitor, full curve, poor fit] | 
61 | O=C(N/N=C/c1ccc([N+](=O)[O-])cc1)c1cnccn1 |  | inactive: 69.5%
62 | O=C(NCc1ccccn1)c1cc(-c2ccccc2Cl)nc2ccccc12 | active: 9.28 µM | 
63 | O=C(CSc1nc2[nH]ncc2c(=O)n1-c1ccc(Cl)c(Cl)c1)NCc1ccccc1Cl | inconclusive [inhibitor, single point] | 
64 | COc1ccc(Nc2ncnc3c2cnn3-c2cccc(C)c2)cc1OC |  | inactive: 20.2%
65 | N#C/C(=C\c1ccccc1C(=O)O)c1nc2ccccc2[nH]1 | inconclusive [inhibitor, partial curve, poor fit] | 
